# The supplement of paper PMC8728848
# The list shows a part of the results.
# Tests used:
# Test in all cases: glycan array binding signal (z-score within array); higher = stronger binding
# Conditions in all cases: glycan notation: IUPAC condensed, linker removed
# [1] = target: Neu5Ac(a2-3)[GalNAc(b1-4)]Gal(b1-4)GlcNAc
# How it was run: (§1)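 Columns mapping to the same glycan were averaged after glycan names were converted to IUPAC-condensed notation. The data come from 3228 arrays in the Consortium for Functional Glycomics database, limited to those with an available protein sequence. Binding is reported as a within-array Z-score averaged across arrays of one protein sequence and across linkers.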
# [2] = target: Neu5Ac(a2-3)[GalNAc(b1-4)]Gal(b1-4)GlcNAc(b1-3)GalNAc
# How it was run: as §1
# [3] = target: Neu5Ac(a2-3)[Neu5Ac(a2-6)]GalNAc
# How it was run: as §1
# Neu5Ac(a2-6)Gal = target: Neu5Ac(a2-6)Gal
# How it was run: as §1
# [4] = target: Neu5Ac(a2-6)Gal(b1-3)GlcNAc(b1-3)[Gal(b1-4)GlcNAc(b1-6)]Gal(b1-4)Glc
# How it was run: as §1
# Neu5Ac(a2-6)Gal(b1-4)Glc = target: Neu5Ac(a2-6)Gal(b1-4)Glc
# How it was run: as §1
# [5] = target: Neu5Ac(a2-6)Gal(b1-4)GlcNAc
# How it was run: as §1
# [6] = target: Neu5Ac(a2-6)Gal(b1-4)GlcNAc(b1-2)Man
# How it was run: as §1
# [7] = target: Neu5Ac(a2-6)Gal(b1-4)GlcNAc(b1-2)Man(a1-3)Man(b1-4)GlcNAc(b1-4)GlcNAc
# How it was run: as §1
# [8] = target: Neu5Ac(a2-6)Gal(b1-4)GlcNAc(b1-2)Man(a1-3)[Gal(b1-4)GlcNAc(b1-2)Man(a1-6)]Man(b1-4)GlcNAc(b1-4)GlcNAc
# How it was run: as §1
# [9] = target: Neu5Ac(a2-6)Gal(b1-4)GlcNAc(b1-2)Man(a1-3)[GlcNAc(b1-2)Man(a1-6)]Man(b1-4)GlcNAc(b1-4)GlcNAc
# How it was run: as §1
# [10] = target: Neu5Ac(a2-6)Gal(b1-4)GlcNAc(b1-2)Man(a1-3)[GlcNAc(b1-4)][Neu5Ac(a2-6)Gal(b1-4)GlcNAc(b1-2)Man(a1-6)]Man(b1-4)GlcNAc(b1-4)GlcNAc
# How it was run: as §1
# [11] = target: Neu5Ac(a2-6)Gal(b1-4)GlcNAc(b1-2)Man(a1-3)[Man(a1-6)]Man(b1-4)GlcNAc(b1-4)GlcNAc
# How it was run: as §1
# [12] = target: Neu5Ac(a2-6)Gal(b1-4)GlcNAc(b1-2)Man(a1-3)[Neu5Ac(a2-3)Gal(b1-4)GlcNAc(b1-2)Man(a1-6)]Man(b1-4)GlcNAc(b1-4)GlcNAc
# How it was run: as §1
# [13] = target: Neu5Ac(a2-6)Gal(b1-4)GlcNAc(b1-2)Man(a1-3)[Neu5Ac(a2-6)Gal(b1-4)GlcNAc(b1-2)Man(a1-6)]Man(b1-4)GlcNAc(b1-4)GlcNAc
# How it was run: as §1
# [14] = target: Neu5Ac(a2-6)Gal(b1-4)GlcNAc(b1-2)Man(a1-3)[Neu5Ac(a2-6)Gal(b1-4)GlcNAc(b1-2)Man(a1-6)]Man(b1-4)GlcNAc(b1-4)[Fuc(a1-6)]GlcNAc
# How it was run: as §1
# [15] = target: Neu5Ac(a2-6)Gal(b1-4)GlcNAc(b1-2)Man(a1-6)Man(b1-4)GlcNAc(b1-4)GlcNAc
# How it was run: as §1
# [16] = target: Neu5Ac(a2-6)Gal(b1-4)GlcNAc(b1-2)Man(a1-6)[Gal(b1-4)GlcNAc(b1-2)Man(a1-3)]Man(b1-4)GlcNAc(b1-4)GlcNAc
# How it was run: as §1
# [17] = target: Neu5Ac(a2-6)Gal(b1-4)GlcNAc(b1-2)Man(a1-6)[GlcNAc(b1-2)Man(a1-3)]Man(b1-4)GlcNAc(b1-4)GlcNAc
# How it was run: as §1
# [18] = target: Neu5Ac(a2-6)Gal(b1-4)GlcNAc(b1-2)Man(a1-6)[Man(a1-3)]Man(b1-4)GlcNAc(b1-4)GlcNAc
# How it was run: as §1
# [19] = target: Neu5Ac(a2-6)Gal(b1-4)GlcNAc(b1-2)[Neu5Ac(a2-6)Gal(b1-4)GlcNAc(b1-4)]Man(a1-3)[GlcNAc(b1-4)][Neu5Ac(a2-6)Gal(b1-4)GlcNAc(b1-2)[Neu5Ac(a2-6)Gal(b1-4)GlcNAc(b1-6)]Man(a1-6)]Man(b1-4)GlcNAc(b1-4)GlcNAc
# How it was run: as §1
# [20] = target: Neu5Ac(a2-6)Gal(b1-4)GlcNAc(b1-2)[Neu5Ac(a2-6)Gal(b1-4)GlcNAc(b1-4)]Man(a1-3)[GlcNAc(b1-4)][Neu5Ac(a2-6)Gal(b1-4)GlcNAc(b1-4)Man(a1-6)]Man(b1-4)GlcNAc(b1-4)GlcNAc
# How it was run: as §1
# [21] = target: Neu5Ac(a2-6)Gal(b1-4)GlcNAc(b1-2)[Neu5Ac(a2-6)Gal(b1-4)GlcNAc(b1-6)]Man(a1-6)[Neu5Ac(a2-6)Gal(b1-4)GlcNAc(b1-2)Man(a1-3)][GlcNAc(b1-4)]Man(b1-4)GlcNAc(b1-4)GlcNAc
# How it was run: as §1
# [22] = target: Neu5Ac(a2-6)Gal(b1-4)GlcNAc(b1-3)Gal(b1-3)GlcNAc
# How it was run: as §1
# [23] = target: Neu5Ac(a2-6)Gal(b1-4)GlcNAc(b1-3)Gal(b1-4)GlcNAc
# How it was run: as §1
# [24] = target: Neu5Ac(a2-6)Gal(b1-4)GlcNAc(b1-3)Gal(b1-4)GlcNAc(b1-2)Man(a1-3)[Neu5Ac(a2-6)Gal(b1-4)GlcNAc(b1-3)Gal(b1-4)GlcNAc(b1-2)Man(a1-6)]GalNAc
# How it was run: as §1
# [25] = target: Neu5Ac(a2-6)Gal(b1-4)GlcNAc(b1-3)Gal(b1-4)GlcNAc(b1-3)Gal(b1-4)GlcNAc
# How it was run: as §1
# [26] = target: Neu5Ac(a2-6)Gal(b1-4)GlcNAc(b1-3)Gal(b1-4)GlcNAc(b1-3)Gal(b1-4)GlcNAc(b1-2)Man(a1-3)[Neu5Ac(a2-6)Gal(b1-4)GlcNAc(b1-3)Gal(b1-4)GlcNAc(b1-3)Gal(b1-4)GlcNAc(b1-2)Man(a1-6)]GalNAc
# How it was run: as §1
# [27] = target: Neu5Ac(a2-6)Gal(b1-4)GlcNAc(b1-3)Gal(b1-4)GlcNAc(b1-3)GalNAc
# How it was run: as §1
# [28] = target: Neu5Ac(a2-6)Gal(b1-4)GlcNAc(b1-3)Gal(b1-4)GlcNAc(b1-3)[Neu5Ac(a2-6)Gal(b1-4)GlcNAc(b1-3)Gal(b1-4)GlcNAc(b1-6)]GalNAc
# How it was run: as §1
# [29] = target: Neu5Ac(a2-6)Gal(b1-4)GlcNAc(b1-3)Gal(b1-4)GlcNAc(b1-6)[Gal(b1-3)]GalNAc
# How it was run: as §1
# [30] = target: Neu5Ac(a2-6)Gal(b1-4)GlcNAc(b1-3)Gal(b1-4)[Fuc(a1-3)]GlcNAc(b1-3)Gal(b1-4)[Fuc(a1-3)]GlcNAc
# How it was run: as §1
# [31] = target: Neu5Ac(a2-6)Gal(b1-4)GlcNAc(b1-3)GalNAc
# How it was run: as §1
# [32] = target: Neu5Ac(a2-6)Gal(b1-4)GlcNAc(b1-3)[Neu5Ac(a2-6)Gal(b1-4)GlcNAc(b1-6)]GalNAc
# How it was run: as §1
# [33] = target: Neu5Ac(a2-6)Gal(b1-4)GlcNAc(b1-6)GalNAc
# How it was run: as §1
# [34] = target: Neu5Ac(a2-6)Gal(b1-4)GlcNAc(b1-6)[Gal(b1-3)GlcNAc(b1-3)]Gal(b1-4)Glc
# How it was run: as §1
# [35] = target: Neu5Ac(a2-6)Gal(b1-4)GlcNAc(b1-6)[Gal(b1-3)]GalNAc
# How it was run: as §1
binder,measurement,setting,value
SJA (Sophora japonica) (protein) FLGLFNSGGYSSSYQIVAVEFDTYINEWDPKTRHIGIDINSINSTKTVTWGWENGEVAIVLISYKAATETLTVSLTYPSSQTSYILSAAVDLKSILPEWVRIGF,glycan array binding signal (z-score),[1],-0.251
same,glycan array binding signal (z-score),[2],0.864
same,glycan array binding signal (z-score),[3],-0.201
same,glycan array binding signal (z-score),Neu5Ac(a2-6)Gal,-0.122
same,glycan array binding signal (z-score),[4],-0.187
same,glycan array binding signal (z-score),Neu5Ac(a2-6)Gal(b1-4)Glc,-0.124
same,glycan array binding signal (z-score),[5],-0.22
same,glycan array binding signal (z-score),[6],-0.33
same,glycan array binding signal (z-score),[7],-0.207
same,glycan array binding signal (z-score),[8],-0.282
same,glycan array binding signal (z-score),[9],-0.29
same,glycan array binding signal (z-score),[10],-0.448
same,glycan array binding signal (z-score),[11],-0.164
same,glycan array binding signal (z-score),[12],-0.178
same,glycan array binding signal (z-score),[13],-0.095
same,glycan array binding signal (z-score),[14],-0.149
same,glycan array binding signal (z-score),[15],-0.09
same,glycan array binding signal (z-score),[16],-0.265
same,glycan array binding signal (z-score),[17],-0.097
same,glycan array binding signal (z-score),[18],-0.242
same,glycan array binding signal (z-score),[19],-0.212
same,glycan array binding signal (z-score),[20],-0.09
same,glycan array binding signal (z-score),[21],-0.339
same,glycan array binding signal (z-score),[22],-0.207
same,glycan array binding signal (z-score),[23],-0.283
same,glycan array binding signal (z-score),[24],0.045
same,glycan array binding signal (z-score),[25],-0.128
same,glycan array binding signal (z-score),[26],1.24
same,glycan array binding signal (z-score),[27],-0.366
same,glycan array binding signal (z-score),[28],1.33
same,glycan array binding signal (z-score),[29],-0.02
same,glycan array binding signal (z-score),[30],-0.009
same,glycan array binding signal (z-score),[31],-0.265
same,glycan array binding signal (z-score),[32],-0.282
same,glycan array binding signal (z-score),[33],-0.006
same,glycan array binding signal (z-score),[34],-0.317
same,glycan array binding signal (z-score),[35],-0.166
